Measured values taken from the RNAGym collection of RNA variant scans (doi:10.1093/nar/gkz1192).
The source gives no read counts; variants with many changes may rest on few reads.

B1: CPEB3 Ribozyme (parent)
chain: UAACAGGGGGCCACAGCAGAAGCGUUCACGUCGCAGCCCCUGUCAGAUUCUGGUGAAUCUGCGAAUUCUGCUGUAUAUCUC

Variants of: B1
Experiment: self-cleavage, relative activity (ratio to wild type); higher = more cleavage; in vitro, sequencing
Outline: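 Relative activity compares each variant's cleaved/total read fraction with that of the unmutated ribozyme. To get these fractions, barcoded CPEB3 ribozyme libraries from rounds of error-prone PCR were transcribed with T7 RNA polymerase for 5 hours at 37°C and then given 15 min of DNase I treatment before EDTA was added. The RNAs were reverse transcribed with template switching and sequenced on Illumina, and DNA sequencing linked barcodes to variants. A minimum of 5 reads applied, and three batches were averaged.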

Row | Variant | self-cleavage
1 | A15G U43C U54C | 0.39
2 | A15G U43C U54C U58C U72C | 0.21
3 | A15G U43C U54G A77U | 0.5
4 | A15G U43C U58C G63A U72C | 0.18
5 | A15G U43C U66C | 0.15
6 | A15G U43G C62U A65G G73U | 0.13
7 | A15G U48A U76A | 0.25
8 | A15G U48C A56U | 0.2
9 | A15G U48C A57G A64G U74C | 1.28
10 | A15G U48C A57G A64U | 0.17
11 | A15G U48C A65G U66C | 0.26
12 | A15G U48C A75G U76C | 0.34
13 | A15G U48C C68G U74A | 0.13
14 | A15G U48C U66A U67C | 0.38
15 | A15G U48C U66C C68G A77G | 0.13
16 | A15G U48C U72A U76C | 0.31
17 | A15G U48C U72C | 0.98
18 | A15G U48G U51G U78C | 0.24
19 | A15G U48G U54G | 0.25
20 | A15G U49A U54C G55A G70A | 0.11
21 | A15G U49C A57G A65G U69C | 0.04

Row | Variant | self-cleavage
22 | A15G U49C A65G | 0.08
23 | A15G U49C A75U | 0.27
24 | A15G U49C U51A C59U U72C | 0.33
25 | A15G U49C U51A U58A U66C U78A | 0.09
26 | A15G U49C U51A U66C | 0.23
27 | A15G U49C U51C A57U U74C | 0.28
28 | A15G U49C U54A U72C A75U U80A | 0.83
29 | A15G U49C U60A U66C A77G | 0.03
30 | A15G U49C U60C A77U | 0.11
31 | A15G U49C U60C U67C U69C U76A | 0.2
32 | A15G U51A A56G | 0.54
33 | A15G U51A A56U U58A U67C | 0.21
34 | A15G U51A A57G U69C U72A | 0.24
35 | A15G U51A A57U U72C | 0.86
36 | A15G U51A A64G | 0.75
37 | A15G U51A A75U | 0.56
38 | A15G U51A U58G U66C U78A | 0.2
39 | A15G U51A U66C | 0.27
40 | A15G U51C A64U | 0.26
41 | A15G U51C A64U U69C | 0.33
42 | A15G U51C A77U | 0.64

Row | Variant | self-cleavage
43 | A15G U51C G63A | 0.43
44 | A15G U51C U58C U60C | 0.15
45 | A15G U51C U66C A75G | 0.18
46 | A15G U51G A56G | 0.68
47 | A15G U51G U66C U72C | 0.49
48 | A15G U51G U78C | 0.58
49 | A15G U54A A56U | 0.31
50 | A15G U54A A56U A65G U72A | 0.26
51 | A15G U54A A65G U67A U80A | 0.3
52 | A15G U54A U66C | 0.41
53 | A15G U54A U74C | 1.2
54 | A15G U54C A56U U78A | 0.48
55 | A15G U54C A57G | 0.57
56 | A15G U54C A75U U78C | 0.76
57 | A15G U54C A77U | 0.72
58 | A15G U54C C59A A64U U80C | 0.17
59 | A15G U54C U66C U74C | 0.28
60 | A15G U54C U69C | 0.23
61 | A15G U54C U72C U78C | 1.24
62 | A15G U54C U74C | 1.23
63 | A15G U54G A56C G63A U66C | 0.19

Row | Variant | self-cleavage
64 | A15G U58C U60C U74G A77C | 0.18
65 | A15G U58C U80A | 0.35
66 | A15G U58G U66C U72C | 0.06
67 | A15G U60A A65C U78C | 0.21
68 | A15G U60A A65G | 0.39
69 | A15G U60A U67G A77G U80C | 0.14
70 | A15G U60A U76A | 0.13
71 | A15G U60C A65G | 0.23
72 | A15G U60C A75G | 0.26
73 | A15G U60C A77U | 0.22
74 | A15G U60C C79A | 0.44
75 | A15G U60C U66A | 0.22
76 | A15G U60C U69A A75U | 0.22
77 | A15G U60C U72G | 0.18
78 | A15G U66C U76C | 0.37
79 | A15G U66C U78C | 0.29
80 | A15G U66C U80C | 0.31
81 | A15G U66G U69C | 0.25
82 | A15G U67A U76C | 0.48
83 | A15G U67C A77U | 0.15
84 | A15G U67C U80A | 0.46
